# Test results: PMC4336329 (PLoS ONE, 2015)
# The campaign covered roughly 310,000 compounds. About 14,000 (4.5%) showed an effect of 50% or more. Effects have a minus sign here. This is one part of the list.
# Target: human ether-à-go-go-related gene (hERG) potassium channel (human, UniProt Q12809)
# Test: primary screen, population patch clamp on CHO cells stably expressing hERG
# 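Note: peak tail current of the secondary pulse compared with the same well before compound.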
# human ether-à-go-go-related gene (hERG) potassium channel, sequence (Q12809 whole entry, looked up): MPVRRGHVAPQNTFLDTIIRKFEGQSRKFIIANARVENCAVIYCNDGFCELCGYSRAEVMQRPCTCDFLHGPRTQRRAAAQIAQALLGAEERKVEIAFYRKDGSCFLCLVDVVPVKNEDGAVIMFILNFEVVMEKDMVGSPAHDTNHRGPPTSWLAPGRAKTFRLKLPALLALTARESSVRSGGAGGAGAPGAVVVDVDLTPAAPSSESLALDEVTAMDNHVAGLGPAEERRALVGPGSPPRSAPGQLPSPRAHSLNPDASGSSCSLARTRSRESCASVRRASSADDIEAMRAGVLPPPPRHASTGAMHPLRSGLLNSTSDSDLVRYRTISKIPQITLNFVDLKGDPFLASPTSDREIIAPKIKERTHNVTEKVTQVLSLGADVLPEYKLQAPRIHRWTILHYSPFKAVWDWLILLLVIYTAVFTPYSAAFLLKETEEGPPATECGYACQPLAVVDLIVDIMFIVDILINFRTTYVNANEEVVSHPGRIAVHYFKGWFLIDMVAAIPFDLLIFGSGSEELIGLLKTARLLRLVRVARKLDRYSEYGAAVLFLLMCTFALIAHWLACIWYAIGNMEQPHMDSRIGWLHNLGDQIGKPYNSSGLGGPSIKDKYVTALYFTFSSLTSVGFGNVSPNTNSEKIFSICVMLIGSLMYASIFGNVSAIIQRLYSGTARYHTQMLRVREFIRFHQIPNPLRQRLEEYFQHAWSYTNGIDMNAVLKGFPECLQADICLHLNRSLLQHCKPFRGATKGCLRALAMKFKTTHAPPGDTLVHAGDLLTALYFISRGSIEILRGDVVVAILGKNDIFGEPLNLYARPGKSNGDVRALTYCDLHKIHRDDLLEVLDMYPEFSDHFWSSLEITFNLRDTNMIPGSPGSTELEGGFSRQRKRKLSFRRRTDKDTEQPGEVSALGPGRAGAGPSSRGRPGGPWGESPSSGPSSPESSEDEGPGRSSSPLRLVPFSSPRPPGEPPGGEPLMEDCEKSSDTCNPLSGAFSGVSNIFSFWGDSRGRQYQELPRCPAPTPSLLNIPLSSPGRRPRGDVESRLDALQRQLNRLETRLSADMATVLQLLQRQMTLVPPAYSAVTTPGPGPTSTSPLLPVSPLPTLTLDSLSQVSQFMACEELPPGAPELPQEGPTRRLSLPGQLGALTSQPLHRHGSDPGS
row,SMILES,"hERG current change (%, negative = inhibition) at 10uM [%]"
1,CCn1c(COc2ccc(Cl)cc2)nnc1SCC(=O)Nc1ccc2c(c1)OCCO2,12.3
2,CC(C)C(c1nnnn1C1CCCC1)N1CCOCC1 (stereo not shown),12.1
3,Cc1cc(OCC(=O)N2CCC(C(=O)O)CC2)c2c3c(c(=O)oc2c1)CCC3,-0.237
4,O=C(Nc1ccc(Br)cc1Br)c1cccc2c1C(=O)N(C1CCCCC1)C2,12.8
5,Cc1nn2c(N3CCN(C)CC3)c3c(nc2c1-c1ccccc1)CCCC3,-26.1
6,Cc1ccc(NC(=O)COc2ncnc3sccc23)cc1S(=O)(=O)N(C)C,-24.7
7,COc1cccc(C(c2nnnn2CC2CCCO2)N2CCN(C(=O)c3ccco3)CC2)c1OC.Cl (stereo not shown),3.65
8,CC(C)CCn1nnnc1CN1CCN(C(c2ccccc2)c2ccccc2)CC1,8.15
9,CCOC(=O)C1CCN(S(=O)(=O)c2ccc3oc(=O)ccc3c2)CC1,-77
10,O=C(NNC1=NCCC1)c1ccc(Br)cc1,-0.881
11,CCn1c2ccccc2c2cc(NC(=O)CN3CCCC3)ccc21,-8.17
12,Cc1ccc(N2C(=O)C(O)(C(F)(F)F)C3=C2CC(C)(C)CC3=O)cc1C (stereo not shown),13.3
13,NNC(=O)c1nc(-c2cccc(-n3cccc3)c2)no1,-0.727
14,O=C(Nc1ccc2nsnc2c1)C1CC1,1.46
15,O=C(N/N=C/c1ccncc1)c1cccs1,8.3
16,COc1cc2c(cc1OC)C(C(=O)Nc1cc(C)c(OC)c(C)c1)CC(=O)N2 (stereo not shown),13.4
17,O=C(COC(=O)c1cc(-c2ccccc2Cl)nc2ccccc12)Nc1ncc(C(F)(F)F)cc1Cl,-10.9
18,COc1ccc([N+](=O)[O-])cc1NC(=O)c1csc(C)c1,1.03
19,Cc1cc(NC(=O)Nc2ccc(F)cc2F)n(C)n1,0.632
20,CN1CCN(c2oc(/C=C/c3ccccc3)nc2C#N)CC1,-53.7

row,SMILES,"hERG current change (%, negative = inhibition) at 10uM [%]"
1,COc1ccccc1NC(=S)N(CCCN1CCOCC1)Cc1cccs1,-35.6
2,N#Cc1cc2c(nc1SCc1ccccc1)CCCC2=O,0.242
3,COc1ccc(/C=N/NC(=O)CCc2ccccc2)cc1O,-1.34
4,CC(=O)c1cc(-c2ccccc2)n(CC(=O)NC2CCCCC2)c1C,16
5,CC(OC(=O)[C@H](C)NC(=O)c1ccccc1Cl)C(=O)NCc1ccc2c(c1)OCO2 (stereo partly shown),-21.7
6,CN1C(=O)SC(Nc2ccccc2)C1=O (stereo not shown),9.1
7,O=C(Cc1ccccc1)NNC(=O)Nc1ccc(Cl)c(Cl)c1,18.5
8,CC/C(C)=N\N=C\c1c(O)n(CC)c2cc(C3=NNC(=O)CC3)ccc12,-13.7
9,CC(CN1CCCCC1)OC(=O)C1c2ccccc2Oc2ccccc21.Cl (stereo not shown),1.68
10,CNC(=O)NC(=O)CSc1nnc(-c2ccco2)n1Cc1ccccc1,-8.53
11,O=C(COc1ccccc1)N1CCN(C/C=C/c2ccccc2)CC1,-58.1
12,CCN(CC)S(=O)(=O)c1ccc(OC)c(NS(=O)(=O)c2ccc(F)cc2)c1,-10.5
13,COc1ccc(OCCC(=O)OCC(=O)Nc2cccc(Br)c2)cc1,-5.88
14,COc1ccc(CCN2CC(C(=O)N(C)Cc3ccccc3OC)CCC2=O)cc1 (stereo not shown),-29.4
15,Nc1cc(-c2ccncc2)c[nH]c1=O,7.48
16,O=C(N/N=C/C(Br)=C/c1ccccc1)c1cc(-c2ccco2)[nH]n1,6.3
17,COC(=O)c1ccc(C2NC(=S)N(c3ccccc3)C(C)=C2C(=O)Nc2ccccc2OC)cc1 (stereo not shown),2.97
18,CCCNC(=O)NC(=O)CSc1nnc(C)n1N,15
19,COCCN(Cc1nc2ccccc2c(=O)[nH]1)C(=O)COc1c(C)cc(Cl)cc1C,4.32
20,CCCCCCn1cc(C(=O)OCC)c(=O)c2cc(F)c(F)cc21,-52.6

row,SMILES,"hERG current change (%, negative = inhibition) at 10uM [%]"
1,Cc1ccc2nc3sc(C(=O)Nc4c(C)[nH]c(=O)[nH]c4=O)c(N)c3cc2c1,-0.392
2,COc1cc(OC)c(NC(=S)Nc2cc(Cl)cc(Cl)c2)cc1Cl,15
3,CCOC(=O)N1CCN(C(=O)COc2ccc(Cl)c(C)c2)CC1,-7.42
4,O=C(CCCOc1ccc(Cl)cc1Cl)Nc1nnc(C2CC2)s1,14
5,CCc1ccc(NC(=O)CCc2nc3ccccc3[nH]2)cc1,-1.85
6,Cc1ccc2c(CN3CCCc4ccccc43)cc(=O)oc2c1C,13.3
7,CSc1ccccc1NC(=O)C1C2CCC(C2)C1C(=O)O (stereo not shown),13.4
8,Cc1nn(Cc2ccccc2Cl)c2sc(C(=O)Nc3ccccc3N3CCOCC3)cc12,0.337
9,O=S(=O)(Nc1nc2ccccc2nc1N1CCN(CCO)CC1)c1cc(F)ccc1F,-0.0855
10,CCN=C1Sc2nc3ccc(OCC)cc3cc2CN1CCOC.Cl,-43.1
11,COc1ccc(N2CCN(S(C)(=O)=O)CC2)cc1,14.1
12,Cc1cc(C)cc(NCc2cc(=O)oc3cc(C)c(O)cc23)c1,21.3
13,COc1cc(CN2CCN(c3ccccc3C)CC2)cc([N+](=O)[O-])c1O,2.78
14,COc1ccc(C2CC2C(C)=O)cc1 (stereo not shown),17.6
15,CC(=O)N1[C@H](Cc2ccccc2)C=C[C@]1(C)C(=O)NCCN1CCOCC1,13.1
16,COC(=O)c1c(S(=O)(=O)NCc2ccccc2)sc(C(=O)O)c1C,6.81
17,COc1cccc(C(=O)NCCS(=O)(=O)NCc2ccco2)c1,-10.9
18,N#Cc1cccc(NC(=O)COC(=O)c2ccc3c(=O)n4c(nc3c2)CCC4)c1,9.95
